Experimental data: paper PMC11363325, “A Novel Prodrug Strategy Based on Reversibly Degradable Guanidine Imides for High Oral Bioavailability and Prolonged Pharmacokinetics of Broad-Spectrum Anti-influenza Agents” (ACS Central Science, 2024)

Key:
[1] = system: A/Hong Kong/8/1968 (HK; H3N2); experiment: microbe, parasite or virus in culture; details: Influenza A virus, H3N2, MDCK
in vitro = details: dog
[2] = system: A/Puerto Rico/8/1934 (PR8; H1N1); experiment: microbe, parasite or virus in culture; details: Influenza A virus, MDCK

With CCC(CC)O[C@@H]1C=C(C(=O)O)C[C@H](N=C(N2C(=O)C3CCC(C)CC3C2=O)N2C(=O)C3CCC(C)CC3C2=O)[C@H]1NC(C)=O (stereo partly drawn) [OSC-GCDI(CM)] the EC50 [1] was 10 ± 10 nM, the CC50 at 3 days (in vitro) was > 100000 nM and the EC50 [2] was 30 ± 10 nM.
